± gives the standard deviation. The entries are a selection whose mix differs from that of the whole data set.
Tested on: MIWI (PIWIL1) piRISC loaded with piRNA #1 (30 nt)
Experiment: pre-steady-state target cleavage rate (min^-1); MIWI and MILI are mouse PIWI proteins and EfPiwi is from a freshwater sponge; tags in brackets are library labels; higher = faster piRNA-guided slicing of the target
Conditions: guide: piRNA #1 5'p-UGAGGUAGUAGGUUGUAUAGUAUCCAGAGG; auxiliary factor: 500 nM mouse GTSF1
In short: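 At 33 °C in HEPES–potassium acetate buffer, a transcribed, DNA-blocked target RNA library […] was exposed for 0–8 or 0–960 min to 1 nM active affinity-purified piRISC carrying a single synthetic guide, with or without 500 nM GTSF1 partner protein. Uncleaved targets were sequenced and normalised to depth and to weakly complementary targets. With three trials pooled and k3 capped at 0.0001 min^-1, a burst-and-steady-state fit produced the pre-steady-state cleavage rate.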
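Note: 1 nM active piRISC with 0.1 nM target library at 33 °C single turnover.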

Q: How did the “pre-steady-state target cleavage rate” value turn out when GGAGACCUAUCUAUACAAGCUUCUACCUCA was run?
A: 0.0248 ± 0.0044

Q: CCUCUGGAUAGAUUACAACCUACUACCUCA was tested. Which “pre-steady-state target cleavage rate” value did it give?
A: 0.803 ± 0.063

Q: How did the “pre-steady-state target cleavage rate” value turn out when GGAGACCUAUCUAUACAAGGUACUACCUCA was run?
A: 0.0102 ± 0.0028

Q: How did the “pre-steady-state target cleavage rate” value turn out when “GGAGACCUAUGAAUACAACCUACUACCUCU [g2:g18:cont:t1U]” was run?
A: 0.00362 ± 0.0034

Q: For GGAGAGGAUACUAUACAACCUCACUACCUCA, which “pre-steady-state target cleavage rate” value is on record?
A: 0.00419 ± 0.0025

Q: Which “pre-steady-state target cleavage rate” value does the source give for GGAGAGGAUACUAUAUCAACCUACUACCUCA here?
A: 0.381 ± 0.06

Q: How did the “pre-steady-state target cleavage rate” value turn out when “CCUCUGGAUACUAUACAACCUACAUGGAGA [g8:g30:cont:t1A]” was run?
A: 0.0372 ± 0.012

Q: For CCUCUGGAUACAUACAACCUACUACCUCA, which “pre-steady-state target cleavage rate” value is on record?
A: 1.65 ± 0.13

Q: CCUCUGGUACUAUACAACCUACUACCUCA was tested. Which “pre-steady-state target cleavage rate” value did it give?
A: 0.79 ± 0.042

Q: CCUCUGGUUACUAUACAACCAACUACCUCA was tested. Which “pre-steady-state target cleavage rate” value did it give?
A: 0.171 ± 0.017

Q: With GGAGACGAUACUAUACAACUACUACCUCA as the sequence, how does the “pre-steady-state target cleavage rate” value read?
A: 0.465 ± 0.027

Q: GGAGACCUAACUAUACGACCUACUACCUCA was tested. Which “pre-steady-state target cleavage rate” value did it give?
A: 0.358 ± 0.045

Q: Which “pre-steady-state target cleavage rate” value does the source give for GGAGACCUAUCUAUACAACCUACUAGCCUCA here?
A: 0.538 ± 0.055

Q: GGAGACGAUACUAAACAUCCUACUACCUCA was tested. Which “pre-steady-state target cleavage rate” value did it give?
A: 1.08 ± 0.085

Q: Which “pre-steady-state target cleavage rate” value does the source give for GGUCUGGAUACUAUACAACGUACUUCCUCA here?
A: 0.317 ± 0.048

Q: Which “pre-steady-state target cleavage rate” value does the source give for GGACUGGAUACUAUACAAGCAACUACCUCA here?
A: 0.0227 ± 0.0035

Q: For GGAGACCUUACUAUUCAACCUACUACGUCA, which “pre-steady-state target cleavage rate” value is on record?
A: 0.678 ± 0.064

Q: For GGUCUGGAUACUAUACAACCUACUUCGUCA, which “pre-steady-state target cleavage rate” value is on record?
A: 0.00248 ± 0.0021

Q: GGUCAGGAUAGUAUACAACCUACUACCUCA was tested. Which “pre-steady-state target cleavage rate” value did it give?
A: 0.505 ± 0.035

Q: How did the “pre-steady-state target cleavage rate” value turn out when GGAGACCUAACUUUAGAACCUACUACCUCA was run?
A: 0.074 ± 0.019

Q: GGACUGGAUACUAUACAACCUACUACCUGCA was tested. Which “pre-steady-state target cleavage rate” value did it give?
A: 0.545 ± 0.073

Q: How did the “pre-steady-state target cleavage rate” value turn out when GGAGACCUAUGUAUACAACCUACUACCCCA was run?
A: 0.216 ± 0.029

Q: GCUUUGGAUACUAUACAACCUACUACCUCA was tested. Which “pre-steady-state target cleavage rate” value did it give?
A: 1.91 ± 0.11

Q: CCUCUGGAUACUAUACACCCUACUACCUCA was tested. Which “pre-steady-state target cleavage rate” value did it give?
A: 1.76 ± 0.098

Q: CCUCUGGAUACUAUAACAACCUACUACCUCA was tested. Which “pre-steady-state target cleavage rate” value did it give?
A: 1.85 ± 0.13

Q: GGAGACCAUACUCAUACAACCUACUACCUCA was tested. Which “pre-steady-state target cleavage rate” value did it give?
A: 0.893 ± 0.099

Q: With GGACUGGAUACAAAACAACCUACUACCUCA as the sequence, how does the “pre-steady-state target cleavage rate” value read?
A: 0.763 ± 0.12

Q: With GGAGACGAUACUGAUACAACCUACUACCUCA as the sequence, how does the “pre-steady-state target cleavage rate” value read?
A: 1.47 ± 0.095

Q: How did the “pre-steady-state target cleavage rate” value turn out when GCUCUGGAUACUAUACAACCAAGUACCUCA was run?
A: 0.0446 ± 0.007

Q: With GGUCUGGAUACUAUAGAACCUUCUACCUCA as the sequence, how does the “pre-steady-state target cleavage rate” value read?
A: 0.0303 ± 0.0067

Q: With GGAGUGGAUACUAUACAAGCUAGUACCUCA as the sequence, how does the “pre-steady-state target cleavage rate” value read?
A: 0.243 ± 0.035

Q: How did the “pre-steady-state target cleavage rate” value turn out when GCUCUGGAUACUAAACAACCUACUACCUGA was run?
A: 0.803 ± 0.11

Q: How did the “pre-steady-state target cleavage rate” value turn out when GGUCUGGAUACUAUACAACGUACAACCUCA was run?
A: 0.432 ± 0.06

Q: For GGAGACCUAACUAUUCAACCUACAACCUCA, which “pre-steady-state target cleavage rate” value is on record?
A: 0.102 ± 0.024

Q: With GGAGACCUAUGAUUACAAGCUACUACGUCA as the sequence, how does the “pre-steady-state target cleavage rate” value read?
A: 0.00427 ± 0.0034

Q: For CCUCUGGAUACAAUACAACCUACUACCUGA, which “pre-steady-state target cleavage rate” value is on record?
A: 0.657 ± 0.085

Q: With GGACUGGAUACUAUACAACCUACUUCCUCA as the sequence, how does the “pre-steady-state target cleavage rate” value read?
A: 0.0088 ± 0.0024

Q: How did the “pre-steady-state target cleavage rate” value turn out when GGAGACCAUACAAUAGAACCUACUACCUCA was run?
A: 0.448 ± 0.06

Q: CCUCUGGAUACUAUACAACCAACUACCACA was tested. Which “pre-steady-state target cleavage rate” value did it give?
A: 0.188 ± 0.024

Q: With GCACAGGAUACUAUACAACCUACUACCUCA as the sequence, how does the “pre-steady-state target cleavage rate” value read?
A: 1.81 ± 0.1

From the supplement of paper PMC10338343
